Experimental data from PubChem BioAssay (NCI).
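Step 1: Grow cells in 96-well plates. Step 2: Expose to compound for 48 hours at 5 concentrations. Step 3: Interpolate endpoints linearly; if unreached, use highest concentration. GI50 is the concentration that inhibits growth by half. TGI marks complete inhibition of growth.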 Calls of active or inactive are those of the source.

Experiments:
Experiment in all cases: NCI tumour cell line growth inhibition, 48 h
SR leukemia = test system: SR leukemia
NCI-H23 lung = test system: NCI-H23 lung
NCI-H226 lung = test system: NCI-H226 lung
HOP-92 NSCLC = test system: HOP-92 NSCLC
CCRF-CEM leukemia = test system: CCRF-CEM leukemia
UACC-257 melanoma = test system: UACC-257 melanoma

O=C1NC(=O)C(c2cccc([N+](=O)[O-])c2)=C1Nc1cc(Cl)c(O)c(Cl)c1
GI50 (SR leukemia): > 25 µM
TGI (SR leukemia): > 25 µM
GI50 (NCI-H23 lung): > 25 µM
TGI (NCI-H23 lung): > 25 µM
GI50 (NCI-H226 lung): > 25 µM
TGI (NCI-H226 lung): > 25 µM
GI50 (HOP-92 NSCLC): > 25 µM
TGI (HOP-92 NSCLC): > 25 µM
GI50 (CCRF-CEM leukemia): inactive
TGI (CCRF-CEM leukemia): > 25 µM
GI50 (UACC-257 melanoma): > 25 µM
TGI (UACC-257 melanoma): > 25 µM
